Reference: US5834279A (priority 1997, dated 1998)

Molecular target: M. tuberculosis R2-2 (Mycobacterium tuberculosis, UniProt P9WH71)
Conditions: 15 mM hydroxyurea, 10 min

For `NC(=O)NO` [hydroxyurea], the “Tyrosyl radical absorbance band at 408 nm after treatment” value was “abolished”.
